Results from PMC4336329 (PLoS ONE, 2015).
About 2,200 (0.71%) of roughly 310,000 compounds showed an effect of 50% or more. The effect is printed as a negative number. This is one part of the list.

target: human ether-à-go-go-related gene (hERG) potassium channel (human, UniProt Q12809); assay: primary screen, population patch clamp on CHO cells stably expressing hERG
Sequence (Q12809 whole entry, looked up): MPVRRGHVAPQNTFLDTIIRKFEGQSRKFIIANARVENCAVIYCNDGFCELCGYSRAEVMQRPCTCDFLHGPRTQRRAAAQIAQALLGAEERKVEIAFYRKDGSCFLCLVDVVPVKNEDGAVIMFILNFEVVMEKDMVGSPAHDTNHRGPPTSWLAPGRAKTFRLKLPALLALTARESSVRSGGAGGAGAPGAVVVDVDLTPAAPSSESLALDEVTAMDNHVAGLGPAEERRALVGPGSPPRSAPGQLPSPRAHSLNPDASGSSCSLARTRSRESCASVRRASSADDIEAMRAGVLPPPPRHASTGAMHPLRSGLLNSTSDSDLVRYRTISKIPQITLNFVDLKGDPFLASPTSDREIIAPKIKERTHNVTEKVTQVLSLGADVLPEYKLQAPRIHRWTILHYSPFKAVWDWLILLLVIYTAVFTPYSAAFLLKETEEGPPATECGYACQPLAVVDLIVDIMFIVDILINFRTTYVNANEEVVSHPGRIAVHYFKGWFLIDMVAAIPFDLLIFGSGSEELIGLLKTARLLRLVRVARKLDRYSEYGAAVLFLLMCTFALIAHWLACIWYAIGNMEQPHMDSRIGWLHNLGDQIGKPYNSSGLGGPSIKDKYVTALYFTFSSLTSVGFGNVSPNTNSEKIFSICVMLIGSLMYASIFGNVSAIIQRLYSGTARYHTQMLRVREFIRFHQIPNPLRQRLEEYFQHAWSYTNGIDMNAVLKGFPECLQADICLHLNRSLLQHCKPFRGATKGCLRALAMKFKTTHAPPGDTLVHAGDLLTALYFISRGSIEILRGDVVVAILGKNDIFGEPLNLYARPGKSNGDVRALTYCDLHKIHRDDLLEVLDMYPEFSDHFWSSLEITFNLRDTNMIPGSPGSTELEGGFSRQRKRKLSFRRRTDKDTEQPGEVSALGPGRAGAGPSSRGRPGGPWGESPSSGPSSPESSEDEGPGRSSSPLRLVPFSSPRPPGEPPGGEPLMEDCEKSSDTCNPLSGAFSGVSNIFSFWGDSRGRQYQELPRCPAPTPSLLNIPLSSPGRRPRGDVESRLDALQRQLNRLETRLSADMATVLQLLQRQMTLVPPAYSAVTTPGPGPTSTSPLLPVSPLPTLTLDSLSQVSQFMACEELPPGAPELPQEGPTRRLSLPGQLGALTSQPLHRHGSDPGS

Row | Structure (SMILES) | hERG current change (%, negative = inhibition) at 1uM [%]
1 | FC(F)(F)c1ccccc1NC1=NCCC1 | 5.25
2 | CCOC(=O)c1c(S(=O)(=O)N2CCCC(C(=O)Nc3ncccc3C)C2)c(C)n(C)c1C (stereo not drawn) | 15.4
3 | CC1=NN(C(=O)c2csc(C)c2C)C(O)(C(F)(F)F)C1 (stereo not drawn) | 8.3
4 | Cc1ccc(N2CC(C(=O)OCc3ccccc3)CC2=O)cc1 (stereo not drawn) | -3.34
5 | NC(=S)N/N=C1\CCOc2ccc(Cl)cc21 | 0.314
6 | CC(OC(=O)C1CCCC1)C(=O)Nc1ccc(C(N)=O)cc1 (stereo not drawn) | 12.1
7 | COc1ccc(S(=O)(=O)N2CCCCCC2)cc1NC(=O)CC1OC(=O)c2ccccc21 (stereo not drawn) | -9.23
8 | O=C1/C(=C/c2ccco2)CCC1C1CCCC1 (stereo not drawn) | 8.51
9 | CC1CCCN(CC(=O)Nc2cc(Cl)ccc2Oc2ccccc2)C1 (stereo not drawn) | 17.9
10 | Cc1ccc(C(=O)N/N=C/c2sc(=O)n(Cc3cccc(C(=O)O)c3)c2Cl)cc1 | 11.6
11 | O=C(c1ccco1)N1CCN(C(=O)C2CC2)CC1 | 2.89
12 | NC(=O)c1cc2c(s1)-c1cc(Cl)ccc1SC2 | 10.7
13 | CC(C)Cc1ccc(C(=O)NCc2ccc3c(c2)OCO3)o1 | 13.8
14 | CSc1nc(C)nc(C2CC2)c1C#N | 15.9
15 | COc1ccc(N2CC(C)Cn3c2nc2c3c(=O)n(Cc3ccc(F)cc3)c(=O)n2C)c(OC)c1 (stereo not drawn) | -3.37
16 | COc1cccc(-c2cc(C(=O)Nc3cccnc3)c3ccccc3n2)c1 | 3.04
17 | CCNC(=O)CSc1nnc(-c2cc(-c3ccc(Cl)cc3)nc3ccccc23)o1 | -4.55
18 | COc1ccccc1N1CCN(C/C=C/c2ccc(N(C)C)cc2)CC1 | -14.8
19 | COCCN1CC(C(=O)NCc2ncccc2C)CCC1=O (stereo not drawn) | 18.5
20 | CCCCC(=O)Nc1ccc(C(=O)NCCN2CCOCC2)cc1 | 16.7
21 | N#CCOC(=O)/C=C/c1ccc2c(c1)OCO2 | 12.3
22 | COc1ccc(CCn2c(N)c(C(=O)NCc3ccco3)c3nc4ccccc4nc32)cc1 | 6.71
23 | COc1ccc(CNC(=O)CN(Cc2ccc(C)cc2)S(=O)(=O)c2ccc(Cl)cc2)cc1 | -18.7

Row | Structure (SMILES) | hERG current change (%, negative = inhibition) at 1uM [%]
24 | C=CCn1c(=O)c2c(nc3n2CCCN3CCc2ccccc2)n(C)c1=O | 14.8
25 | O=S(=O)(c1ccc(Br)s1)N1CCN(c2ccccc2)CC1 | 11.5
26 | CN(C)S(=O)(=O)Oc1ccccc1C(=O)Nc1cccc(C(F)(F)F)c1 | 7.74
27 | COc1cc(/C(C)=N/NC(=O)CSc2nnc(C)s2)ccc1O | 10.4
28 | COc1cc(/C=N/NC(=O)c2c(-c3ccccc3)noc2C)cc(OC)c1OC | 1.51
29 | CCCCn1c(N)c(N2CCOCC2)c(=O)n(CC(=O)NCCc2ccccc2)c1=O | 10.8
30 | Cc1ccc(-c2ccc(=O)n(CC(=O)NCC3COCCO3)n2)cc1 (stereo not drawn) | 14.6
31 | COc1cc(NC(=O)c2cc([N+](=O)[O-])ccc2Br)ccc1NC(=O)c1ccco1 | 10.9
32 | Cc1cc(=O)n2[nH]c(-c3ccc(C(C)(C)C)cc3)cc2n1 | -1.14
33 | CCCCOC(=O)Cn1cnc2ccc(Br)cc2c1=O | -6.98
34 | CCc1ccccc1N(C1=NCCCS1)S(=O)(=O)c1ccc(C(C)(C)C)cc1 | 3.97
35 | COc1ccc(NC(=O)CN(C)C(=O)C(Sc2ccccc2)c2ccccc2)cc1 (stereo not drawn) | 2.88
36 | COc1cc(OC)cc(C(=O)O/N=C(\N)c2cccc(C)c2)c1 | 9.35
37 | CCC(C)(C)n1nnnc1CN1CCN(C(c2ccccc2)c2ccccc2)CC1 | 0.415
38 | CC(C)CC(C)N (stereo not drawn) | 9.83
39 | Cc1cccc(-c2n[nH]c(=S)n2C)c1 | 12.1
40 | CCCCNC(=O)COC(=O)c1cc(C)oc1C | 8.11
41 | C=CCn1sc(N)c(C(=O)OCC)c1=S | 0.483
42 | CNc1nc(OC)nc(N(C#N)CN2C(=O)c3ccccc3S2(=O)=O)n1 | -0.215
43 | OC[C@@H](O)CCl | 12.7
44 | O=C(Nc1cccc(C(F)(F)F)c1)c1scc2c1OCCO2 | 6.75
45 | C=CCSc1ncc(C#N)c(N)n1 | -5.03
46 | COc1ccc(C(=O)NCc2nnc(SCC(=O)NC3CCCCC3)n2C)cc1 | 13.4

Row | Structure (SMILES) | hERG current change (%, negative = inhibition) at 1uM [%]
47 | O=C(Nc1ccc(OC(F)(F)F)cc1)Nc1cccc([N+](=O)[O-])c1 | 11.4
48 | COc1ccccc1OCC(=O)NCCC1=CCCCC1 | 10.7
49 | CCCNS(=O)(=O)c1ccc(OCC(=O)OC)cc1 | 5.98
50 | Cc1ccc(SCC(=O)Nc2nnc(-c3ccco3)o2)cc1 | 7.91
51 | CC1(C)CC(=O)C(C(N)=NC(=O)c2ccc([N+](=O)[O-])cc2)=C(O)C1 | 13.3
52 | Cc1ccc(Cn2c(C(C)Nc3nc(-c4ccc(F)cc4)cs3)nc3cc(C(F)(F)F)ccc32)cc1 (stereo not drawn) | 13
53 | O=C(NCc1ccccn1)c1cc(-c2ccncc2)nc2ccccc12 | -0.554
54 | COc1ccc2nc(NC(=O)CCN3C(=S)NC(C)(C)CC3C)sc2c1 (stereo not drawn) | 1.42
55 | Cc1cccc(C(=O)NC(=S)Nc2ccc(Cc3ccncc3)cc2)c1 | 0.134
56 | COC(=O)C1=C(N)c2c(F)cccc2C1(C#N)c1ccc(F)cc1 (stereo not drawn) | 10.4
57 | CCc1cccc(C)c1NC(=O)C(c1ccccc1)N1CCC1=O (stereo not drawn) | 11.5
58 | CNC(=O)CC1C(=O)N(c2ccc(F)cc2)C(=S)N1NC(=O)c1ccc(Br)cc1 (stereo not drawn) | 9.79
59 | O=S(=O)(Cc1cccc(C(F)(F)F)c1)c1ncn[nH]1 | 17
60 | Cc1ccc(SCCC(=O)NCCSCc2ccccc2C)cc1 | 10.1
61 | Cl.c1ccc2c(c1)oc1c(Nc3ccc4c(c3)OCO4)ncnc12 | 17
62 | O=C(NN=C1CCCC1)c1[nH]c2ccc(Cl)cc2c1-c1ccccc1 | 8.8
63 | CCOC(=O)Cn1nc(C)n(-c2c(C)cccc2C)c1=O | 13
64 | CCOC(=O)c1cnc2cc(-c3ccc(C)cc3)nn2c1-c1ccccc1 | 9.73
65 | Cc1cccc(C(=O)NCC(=O)Nc2ccncc2)c1 | -2.43
66 | Cc1nn(Cc2ccc(Cl)c(Cl)c2)c(C)c1NC(=O)c1cc(C2CC2)on1 | 4.2
67 | CCNc1ccc(C(=O)OCC)cc1NC(=O)c1cc(S(=O)(=O)N2CCOCC2)ccc1C | 3.02
68 | Cc1ccc(S(=O)(=O)NNC(=O)CC#N)cc1 | 11
69 | COc1cc(C(=O)OCC(=O)Nc2ccc3c(c2)OC(F)(F)O3)ccc1OCc1c(C)noc1C | 3.96

Row | Structure (SMILES) | hERG current change (%, negative = inhibition) at 1uM [%]
70 | NC(=O)C1CCN(C(=O)CSc2nc3ccccc3s2)CC1 | 11.3
71 | CCS(=O)(=O)Nc1ccc(C2=NN(C(=S)Nc3ccccc3)C(c3ccco3)C2)cc1 (stereo not drawn) | 4.29
72 | O=C(NC1CC1)C1CCN(S(=O)(=O)c2cc([N+](=O)[O-])ccc2Cl)CC1 | -8.17
73 | COC(=O)[C@H](Cc1ccccc1)NC(=O)O[C@@H]1C(=O)c2cc(Br)ccc2O[C@H]1c1cccc(OC)c1 | 9.8
74 | Cc1cccc(OCC(=O)NNC(=O)CCCCC(=O)NNC(=O)COc2cccc(C)c2)c1 | 7.11
75 | CC(=O)c1ccc(NS(=O)(=O)c2ccc(-c3cnc(C4CC4)o3)cc2)cc1 | 11.6
76 | N#CC1=C(N)Oc2n[nH]c(-c3cccs3)c2C1c1cccnc1 (stereo not drawn) | 20.6
77 | COc1ccc(NC(=O)Nc2ccccc2)cc1S(=O)(=O)N1CCCCC1 | 10.1
78 | CCOC(=O)c1c(/N=C/c2cccc(C)c2O)sc2c1CCN(C)C2 | 10.5
79 | O=C(CCCc1c[nH]c2ccccc12)NCc1ccccc1F | 7.27
80 | CCCN1C(=O)c2ccc(C(=O)NCc3ccco3)cc2C1=O | 0.339
81 | CC(C)CN(C(=O)c1ccc2c(c1)OCCO2)c1c(N)n(Cc2ccccc2)c(=O)[nH]c1=O | 7.13
82 | COc1ccc(C(=O)c2cc3c(cc2[N+](=O)[O-])OCCO3)cc1 | 6.95
83 | COc1ccccc1C(=O)NCCc1c(C)[nH]c2c(C)ccc(F)c12 | 9.12
84 | COc1ccc(C(=O)NC(=S)N2CCCC2)cc1 | -2.18
85 | CCOC(=O)C1CCN(C(=O)c2cc3ccc(OC)cc3[nH]2)CC1 | 16.1
86 | Cc1ccc2nc(-c3ccc(NC(=O)CN4CCN(c5ccccn5)CC4)cc3)sc2c1 | 12.6
87 | C=C(C)c1cccc(C(C)(C)NC(=O)N2CCN(c3ncccn3)CC2)c1 | 5.23
88 | COc1ccc(C(=O)/C=C/c2cccs2)c(OC(=O)c2cccc([N+](=O)[O-])c2)c1 | 5.76
89 | CCCCN(CCCC)S(=O)(=O)c1ccc2[nH]c(=O)[nH]c2c1 | -4.52
90 | NC(=O)c1ccsc1NC(=O)CSc1nnc(C2CC2)n1Cc1ccccc1 | -3.14
